The record followed here is patent EP4792830A2.

This experiment deals with endogenous TFPI in human plasma (human), P10646. In words: cell-based or functional assay.

B1: TFPI-26 (antibody, human IgG1, lambda)
heavy: [omitted - about 100 residues]NGAAAAWDYWGQGTLVTVSSASTKGPSVFPLAPSSKSTSGGTAALGCLVKDYFPEPVTVSWNSGALTSGVHTFPAVLQSSGLYSLSSVVTVPSSSLGTQTYICNVNHKPSNTKVDKKVEPKSCDKTHTCPPCPAPEAAGAPSVFLFPPKPKDTLMISRTPEVTCVVVDVSHEDPEVKFNWYVDGVEVHNAKTKPREEQYNSTYRVVSVLTVLHQDWLNGKEYKCKVSNKALPAPIEKTISKAKGQPREPQVYTLPPSREEMTKNQVSLTCLVKGFYPSDIAVEWESNGQPENNYKTTPPVLDSDGSFFLYSKLTVDKSRWQQGNVFSCSVMHEALHNHYTQKSLSLSPG
light: QSVLTQPPSLSGAPGQRVTISCTGSSSNLGADYDVQWYQQLPGTAPKLLIFGNNNRPSGVPDRFSGSRSGTSASLAITGLQAEDEANYYCQSYDRSLSGSMVFGGGTKLTVLGQPKAAPSVTLFPPSSEELQANKATLVCLISDFYPGAVTVAWKADSSPVKAGVETTTPSKQSNNKYAASSYLSLTPEQWKSHRSYSCQVTHEGSTVEKTVAPTECS
Turning to B1, the TGA Velocity Index at 20 nM is 18.6.

B2: hz4F36 (antibody, human IgG4 S228P, kappa)
heavy: EVQLVESGGGLVKPGGSLRLSCAASGFTFSNYAMSWVRQTPEKRLEWVATISRSGSYSYFPDSVQGRFTISRDNAKNSLYLQMNSLRAEDTAVYYCARLGGYDEGDAMDSWGQGTTVTVSSASTKGPSVFPLAPCSRSTSESTAALGCLVKDYFPEPVTVSWNSGALTSGVHTFPAVLQSSGLYSLSSVVTVPSSSLGTKTYTCNVDHKPSNTKVDKRV[omitted - human IgG4 Fc with S228P (EU numbers)]
light: DIVMTQTPLSLSVTPGQPASISCKSSQSLLESDGKTYLNWYLQKPGQSPQLLIYLVSILDSGVPDRFSGSGSGTDFTLKISRVEAEDVGVYYCLQATHFPQTFGGGTKVEIKRTVAAPSVFIFPPSDEQLKSGTASVVCLLNNFYPREAKVQWKVDNALQSGNSQESVTEQDSKDSTYSLSSTLTLSKADYEKHKVYACEVTHQGLSSPVTKSFNRGEC
B2 showed a Dilute PT EC50 of 0.44 nM and an EC50 (dilute prothrombin time, clotting time) of 0.44 nM.
